The values that follow come from the supplement of paper PMC8512760.

The structures appear in SMILES notation. The list shows a part of the results. Single values are uncertain, as repeats are few or missing.
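Further: stably firefly luciferase-GFP labeled cells in 96-well plates, viability read as luciferase photon flux after d-luciferin addition, treated wells normalized to vehicle wells, single-dose high-throughput screen.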

In this test the test system is SUM-149. Description: cell viability relative to vehicle (% of vehicle); basal-like triple-negative breast cancer lines; higher = less cytotoxic. Conditions: 10 µM; 72 h.
Molecule `Oc1c(Br)cc(Br)c2cccnc12` [Broxyquinoline] showed a cell viability of 93.1.

In turn, `OCCOc1ccc(C(=C(CCCl)c2ccccc2)c2ccccc2)cc1` [Ospemifene] came in with a cell viability of 113.

Molecule `Cc1ccc(C(=O)N(CCCN)C(c2nc3cc(Cl)ccc3c(=O)n2Cc2ccccc2)C(C)C)cc1` (stereo not given) displayed a cell viability of 31.4.

In turn, `CCN(CC)CCOC(=O)c1ccc(N)cc1` [Procaine] registered a cell viability of 114.

As for `Clc1ccc(COC(Cn2ccnc2)c2ccc(Cl)cc2Cl)cc1.O=[N+]([O-])O` (stereo not given) [Econazole nitrate], the cell viability stood at 138.

Molecule `Clc1ccc2c(c1)C(N1CCNCC1)=Nc1ccccc1O2` [Amoxapine] registered a cell viability of 92.9.

For the molecule `COC1=C(OC)C(=O)C(CCCCCCCCCCO)=C(C)C1=O` [Idebenone], the cell viability amounted to 103.

With `Nc1ccn(CC(CO)OCP(=O)(O)O)c(=O)n1.O.O` (stereo not given) [Cidofovir dihydrate], the cell viability was found to be 111.

Turning to `CCOC(=O)C(CCc1ccccc1)NC(C)C(=O)N1C(=O)N(C)CC1C(=O)O.Cl` (stereo not given) [Imidapril HCl], the cell viability amounted to 106.

For the molecule `CCCCC(=O)N(Cc1ccc(-c2ccccc2-c2nnn[nH]2)cc1)[C@H](C(=O)O)C(C)C.CCOC(=O)[C@H](C)C[C@@H](Cc1ccc(-c2ccccc2)cc1)NC(=O)CCC(=O)O`, the cell viability worked out at 99.7.

Consider `CC(O)(P(=O)(O)O)P(=O)(O)O` [Etidronate], for which the cell viability was 86.1.

`CCn1cc(C(=O)O)c(=O)c2cnc(N3CCCC3)nc21` [Piromidic Acid] displayed a cell viability of 95.3.

In turn, `COC(=O)C1=COC(O)C2C(CO)=CCC12` (stereo not given) [Genipin] showed a cell viability of 94.6.

The molecule `O=C1OC(C(O)CO)C(O)=C1O` (stereo not given) [Vitamin C] had a cell viability of 105.

In turn, `Cc1cc(=O)[nH]c(=S)[nH]1` [Methylthiouracil] returned a cell viability of 105.

`CC(C)N=c1cc2n(-c3ccc(Cl)cc3)c3ccccc3nc-2cc1Nc1ccc(Cl)cc1` [Clofazimine] returned a cell viability of 87.9.

`NS(=O)(=O)c1cc2c(cc1Cl)NC=NS2(=O)=O` [Chlorothiazide] had a cell viability of 123.

For `CCn1cc(C(=O)O)c(=O)c2cc(F)c(N3CCNC(C)C3)c(F)c21.Cl` (stereo not given) [Lomefloxacin HCl], the cell viability is 81.1.

`Nc1ncnc2c1ncn2C1OC(CO)C(O)C1O` (stereo not given) [Vidarabine]: the cell viability stood at 102.

The molecule `Cc1ccc(=O)n(-c2ccccc2)c1` [Pirfenidone] showed a cell viability of 102.

`CCCCc1oc2ccc(NS(C)(=O)=O)cc2c1C(=O)c1ccc(OCCCN(CCCC)CCCC)cc1.Cl` [Dronedarone HCl] returned a cell viability of 114.

Molecule `COc1cccc2c1C(=O)c1c(O)c3c(c(O)c1C2=O)CC(O)(C(=O)CO)CC3OC1CC(N)C(O)C(C)O1.Cl` (stereo not given) [Epirubicin HCl] showed a cell viability of 31.9.

`O=C(O)C1=COC(OC2OC(CO)C(O)C(O)C2O)C2C(CO)=CCC12` (stereo not given) [Geniposidic acid] yielded a cell viability of 116.

Regarding `Cc1cccc(CN2CCN(C(c3ccccc3)c3ccc(Cl)cc3)CC2)c1.Cl.Cl` (stereo not given) [Meclizine 2HCl], the cell viability is 91.

`COC(c1ccccc1)(c1ccccc1)C(Oc1nc(C)cc(C)n1)C(=O)O` (stereo not given) [Ambrisentan] registered a cell viability of 94.8.

For the molecule `O=C(O)CSCC(=O)NC1CCSC1=O` (stereo not given) [Erdosteine], the cell viability amounted to 138.

The molecule `CS(=O)(=O)Nc1ccc([N+](=O)[O-])cc1Oc1ccccc1` [Nimesulide] showed a cell viability of 124.

The molecule `Cc1ccc(-n2[nH]c(C)c(NN=C3C=CC=C(c4cccc(C(=O)O)c4)C3=O)c2=O)cc1C` [Eltrombopag] had a cell viability of 115.

For the molecule `O=C(O)CCc1nc(-c2ccccc2)c(-c2ccccc2)o1` [Oxaprozin], the cell viability turned out to be 91.6.

As for `CCOC(=O)n1ccn(C)c1=S` [Carbimazole], the cell viability amounted to 113.

For `COC(=O)c1ccc2c(c1)NC(=O)C2=C(Nc1ccc(N(C)C(=O)CN2CCN(C)CC2)cc1)c1ccccc1` [Nintedanib (BIBF 1120)], the cell viability worked out at 77.7.

`Cc1c(NC(=O)c2cccnc2)c(=O)n(-c2ccccc2)n1C` [Nifenazone] had a cell viability of 95.2.

In turn, `CCCCN1CCCCC1C(=O)Nc1c(C)cccc1C.Cl` (stereo not given) [Bupivacaine HCl] displayed a cell viability of 121.

Molecule `COS(=O)(=O)[O-].C[N+]1(C)CCC(=C(c2ccccc2)c2ccccc2)CC1` [Diphemanil Methylsulfate] had a cell viability of 96.8.

With `Cc1cc(C=CC#N)cc(C)c1Nc1ccnc(Nc2ccc(C#N)cc2)n1` [Rilpivirine], the cell viability came out at 109.

`Cn1c(=O)c2c(ncn2CC2OCCO2)n(C)c1=O` [Doxofylline] came in with a cell viability of 116.

Consider `Nc1ccc(S(N)(=O)=O)cc1` [Sulfanilamide], for which the cell viability stood at 99.4.

In turn, `CO[C@H]1/C=C/O[C@@]2(C)Oc3c(C)c(O)c4c(O)c(c5c(nc6cc(C)ccn65)c4c3C2=O)NC(=O)/C(C)=C\C=C\[C@H](C)[C@H](O)[C@@H](C)[C@H](O)[C@@H](C)[C@H](OC(C)=O)[C@@H]1C` [Rifaximin (Xifaxan)] returned a cell viability of 107.

In turn, `NS(=O)(=O)c1cc2c(cc1Cl)NC(C(Cl)Cl)NS2(=O)=O` (stereo not given) [Trichlormethiazide] showed a cell viability of 95.5.

Turning to `O=C(Oc1ccccc1C(=O)O)c1ccccc1O` [Sasapyrine], the cell viability is 106.
